Drawing on the antibiotic and cytotoxicity screens of Wong et al. (2023), this text covers cytotoxicity call and growth inhibition call for 30 compounds.

In one test the test system is HSkMC. Put plainly: cytotoxicity call (relative viability < 0.9). The conditions noted are these: 10 µM.
The subject of another test is S. aureus RN4220. The test is described as follows: growth inhibition call (relative growth <= 0.2). The following applies: 50 µM.

The structures appear in SMILES notation. The list shows a part of the results.

As for `COc1cc2c(NC3CCN(C)CC3)nc(N3CCCN(C)CC3)nc2cc1OCCOCCN(C)C`, in the test on HSkMC, the cytotoxicity call is “inactive”. Besides, the growth inhibition call in the test on S. aureus RN4220 is “inactive”.

`COc1cccc(NC(=O)N[C@@H]2C=C[C@@H](CC(=O)N3CCOCC3)O[C@@H]2CO)c1`: the cytotoxicity call in the test with HSkMC is “inactive”. Further, the growth inhibition call in the test with S. aureus RN4220 is “inactive”.

For `C[C@@H]1CCCCO[C@H](CN(C)CC2CCCCC2)[C@@H](C)CN([C@H](C)CO)C(=O)c2cc(NS(=O)(=O)c3ccc(F)cc3)ccc2O1`, in the test on HSkMC, the cytotoxicity call was “inactive”. The growth inhibition call with S. aureus RN4220 is “inactive”.

`Cc1ccc(S(=O)(=O)N[C@@H](Cc2ccccc2)C(=O)NCCCn2cc(CCC(=O)NO)nn2)cc1`: in the test with HSkMC, the cytotoxicity call was “inactive”. In the test on S. aureus RN4220, the growth inhibition call is “inactive”.

As to `Nc1ccn([C@@H]2C[C@@H](O)[C@H](CO)O2)c(=O)n1`, the cytotoxicity call in the test on HSkMC is “inactive”. Also, the growth inhibition call in the test with S. aureus RN4220 was “inactive”.

In the case of `C[C@H]1CN([C@@H](C)CO)C(=O)c2cccc(NS(=O)(=O)c3ccc(Cl)cc3)c2O[C@H]1CN(C)Cc1ccc(Oc2ccccc2)cc1`, the cytotoxicity call in the test with HSkMC is “inactive”. In the test on S. aureus RN4220, the growth inhibition call was “inactive”.

On to `CCCN(C)C[C@@H]1OCCCC[C@@H](C)Oc2ccc(NC(=O)CCC(F)(F)F)cc2C(=O)N([C@@H](C)CO)C[C@@H]1C`, for which the cytotoxicity call in the test on HSkMC was “inactive”. The growth inhibition call in the test on S. aureus RN4220 is “inactive”.

In the case of `C[C@@H]1CCCCO[C@@H](CN(C)C(=O)Nc2cccc3ccccc23)[C@@H](C)CN([C@H](C)CO)C(=O)c2cc(NS(=O)(=O)c3cccs3)ccc2O1`, the cytotoxicity call in the test on HSkMC was “inactive”. Moreover, the growth inhibition call with S. aureus RN4220 was “inactive”.

On to `C[C@@H]1CCCCO[C@@H](CN(C)C(=O)NC2CCCCC2)[C@H](C)CN([C@H](C)CO)C(=O)c2cc(NC(=O)Nc3cccc4ccccc34)ccc2O1`, for which the cytotoxicity call in the test on HSkMC was “inactive”. For the same compound, the growth inhibition call with S. aureus RN4220 was “inactive”.

Take `CCCNC(=O)c1cc2c(c(-c3cccc(-c4ccc(F)cc4)c3)n1)[C@@H](CCO)N([S@](=O)C(C)(C)C)C2`: the cytotoxicity call in the test with HSkMC was “inactive”. In addition, in the test with S. aureus RN4220, the growth inhibition call is “inactive”.

Regarding `CO[C@H]1CN(C)C(=O)c2cc(NS(=O)(=O)CC(F)(F)F)ccc2OC[C@H](C)N(Cc2ccccn2)C[C@@H]1C`, the cytotoxicity call in the test on HSkMC is “inactive”. In the test with S. aureus RN4220, the growth inhibition call is “inactive”.

Regarding `Cc1noc(C)c1NC(=O)Nc1ccc2c(c1)C(=O)N([C@H](C)CO)C[C@H](C)[C@@H](CN(C)S(=O)(=O)c1ccc(Cl)cc1)OCCCC[C@H](C)O2`, the cytotoxicity call in the test on HSkMC is “inactive”. The growth inhibition call with S. aureus RN4220 was “inactive”.

Regarding `C[C@@H]1CN([C@H](C)CO)C(=O)Cc2cc(NC(=O)Cn3cnnn3)ccc2O[C@H]1CN(C)CC1CC1`, the cytotoxicity call in the test on HSkMC is “inactive”. Also, in the test with S. aureus RN4220, the growth inhibition call is “inactive”.

For `C[C@H](CO)N1C[C@H](C)[C@@H](CN(C)C(=O)NC2CCCCC2)OCCCC[C@H](C)Oc2ccc(NS(=O)(=O)c3cccs3)cc2C1=O`, the cytotoxicity call with HSkMC was “inactive”. Further, in the test on S. aureus RN4220, the growth inhibition call was “inactive”.

For the compound `O=C(O)[C@H]1Cc2ccccc2CN1`, the cytotoxicity call in the test on HSkMC is “inactive”. The growth inhibition call with S. aureus RN4220 was “inactive”.

`CNCCC(Oc1ccccc1C)c1ccccc1.Cl` (stereo not given): in the test on HSkMC, the cytotoxicity call was “inactive”. The growth inhibition call in the test with S. aureus RN4220 was “inactive”.

`COc1ccc(CN(C)C[C@@H]2OCCCC[C@@H](C)Oc3ccc(NS(=O)(=O)c4c(C)noc4C)cc3C(=O)N([C@H](C)CO)C[C@H]2C)cc1`: in the test with HSkMC, the cytotoxicity call was “inactive”. Besides, the growth inhibition call in the test with S. aureus RN4220 is “inactive”.

Take `C[C@@H]1CCCCO[C@@H](CN(C)S(=O)(=O)c2ccc(Cl)cc2)[C@@H](C)CN([C@H](C)CO)C(=O)c2cc(NC(=O)Cc3ccccc3)ccc2O1`: the cytotoxicity call with HSkMC was “inactive”. For the same compound, the growth inhibition call in the test with S. aureus RN4220 is “inactive”.

For `COC(=O)c1[nH]c(C(=O)OC)c(O)c1O`, the cytotoxicity call with HSkMC was “inactive”. For the same compound, the growth inhibition call in the test with S. aureus RN4220 was “inactive”.

For the compound `CCS(=O)(=O)N1[C@H](CO)[C@H](c2ccccc2)C12CN(C(=O)CN(C)C)C2`, the cytotoxicity call with HSkMC was “inactive”. In addition, in the test with S. aureus RN4220, the growth inhibition call was “inactive”.

`C[C@H](CO)N1C[C@H](C)[C@@H](CN(C)C(=O)Nc2ccc3c(c2)OCO3)Oc2c(NC(=O)C3CCOCC3)cccc2C1=O`: in the test with HSkMC, the cytotoxicity call was “inactive”. The growth inhibition call in the test on S. aureus RN4220 was “inactive”.

With `COc1ccc([Si](C)(C)[C@@H]2[C@@H](CCO)O[C@]3(C(=O)N(Cc4ccccc4)c4ccc(N5CCCCC5=O)cc43)[C@H]2C)cc1`, the cytotoxicity call in the test on HSkMC is “inactive”. In the test with S. aureus RN4220, the growth inhibition call is “inactive”.

With `C[C@H](CO)N1C[C@H](C)[C@H](CN(C)C(=O)Nc2ccc(C(F)(F)F)cc2)OCCCC[C@H](C)Oc2ccc(NC(=O)Nc3cccc4ccccc34)cc2C1=O`, in the test with HSkMC, the cytotoxicity call was “inactive”. In the test on S. aureus RN4220, the growth inhibition call was “inactive”.

Regarding `Cc1noc(C)c1S(=O)(=O)Nc1cccc2c1O[C@H](CN(C)S(=O)(=O)c1c(C)noc1C)[C@H](C)CN([C@@H](C)CO)C2=O`, the cytotoxicity call in the test with HSkMC is “inactive”. In addition, the growth inhibition call in the test with S. aureus RN4220 was “inactive”.

Turning to `C[C@H](CO)N1C[C@H](C)[C@H](CN(C)Cc2ccccc2)OCCCC[C@H](C)Oc2ccc(NS(=O)(=O)c3ccc(Cl)cc3)cc2C1=O`, in the test with HSkMC, the cytotoxicity call is “inactive”. In addition, the growth inhibition call in the test with S. aureus RN4220 was “inactive”.

For `C[C@H]1CN([C@@H](C)CO)C(=O)c2cc(NS(=O)(=O)c3ccccc3)ccc2O[C@@H]1CN(C)C(=O)Nc1cccc2ccccc12`, the cytotoxicity call in the test on HSkMC was “inactive”. Besides, in the test on S. aureus RN4220, the growth inhibition call was “inactive”.

Take `C[C@@H]1CN([C@@H](C)CO)C(=O)c2cc(NC(=O)C3CCCCC3)ccc2O[C@@H](C)CCCCO[C@@H]1CN(C)Cc1ccc(Cl)c(Cl)c1`: in the test on HSkMC, the cytotoxicity call was “inactive”. The growth inhibition call in the test on S. aureus RN4220 is “inactive”.

For the compound `O=C(O)Cc1ccc(O)c(O)c1`, the cytotoxicity call in the test on HSkMC (human skeletal muscle cells) is “inactive”. Besides, the growth inhibition call with S. aureus RN4220 is “inactive”.

As for `COc1ccc(S(=O)(=O)Nc2ccc3c(c2)CC(=O)N([C@@H](C)CO)C[C@H](C)[C@@H](CN(C)C(=O)Nc2c(C)noc2C)O3)cc1`, the cytotoxicity call with HSkMC was “inactive”. In addition, the growth inhibition call in the test on S. aureus RN4220 was “inactive”.

In the case of `Cc1cccc2ccccc12`, the cytotoxicity call in the test with HSkMC is “inactive”. Besides, in the test with S. aureus RN4220, the growth inhibition call was “inactive”.
